Test results from publication PMC4336329 (PLoS ONE, 2015).
About 14,000 (4.5%) of roughly 310,000 compounds showed an effect of 50% or more. Effects have a minus sign here. The list shows a part of the results.

What follows are compounds tested against human ether-à-go-go-related gene (hERG) potassium channel (human, UniProt Q12809) (assay: primary screen, population patch clamp on CHO cells stably expressing hERG).
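Further: peak tail current of the secondary pulse compared with the same well before compound.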

human ether-à-go-go-related gene (hERG) potassium channel, sequence (Q12809 whole entry, looked up): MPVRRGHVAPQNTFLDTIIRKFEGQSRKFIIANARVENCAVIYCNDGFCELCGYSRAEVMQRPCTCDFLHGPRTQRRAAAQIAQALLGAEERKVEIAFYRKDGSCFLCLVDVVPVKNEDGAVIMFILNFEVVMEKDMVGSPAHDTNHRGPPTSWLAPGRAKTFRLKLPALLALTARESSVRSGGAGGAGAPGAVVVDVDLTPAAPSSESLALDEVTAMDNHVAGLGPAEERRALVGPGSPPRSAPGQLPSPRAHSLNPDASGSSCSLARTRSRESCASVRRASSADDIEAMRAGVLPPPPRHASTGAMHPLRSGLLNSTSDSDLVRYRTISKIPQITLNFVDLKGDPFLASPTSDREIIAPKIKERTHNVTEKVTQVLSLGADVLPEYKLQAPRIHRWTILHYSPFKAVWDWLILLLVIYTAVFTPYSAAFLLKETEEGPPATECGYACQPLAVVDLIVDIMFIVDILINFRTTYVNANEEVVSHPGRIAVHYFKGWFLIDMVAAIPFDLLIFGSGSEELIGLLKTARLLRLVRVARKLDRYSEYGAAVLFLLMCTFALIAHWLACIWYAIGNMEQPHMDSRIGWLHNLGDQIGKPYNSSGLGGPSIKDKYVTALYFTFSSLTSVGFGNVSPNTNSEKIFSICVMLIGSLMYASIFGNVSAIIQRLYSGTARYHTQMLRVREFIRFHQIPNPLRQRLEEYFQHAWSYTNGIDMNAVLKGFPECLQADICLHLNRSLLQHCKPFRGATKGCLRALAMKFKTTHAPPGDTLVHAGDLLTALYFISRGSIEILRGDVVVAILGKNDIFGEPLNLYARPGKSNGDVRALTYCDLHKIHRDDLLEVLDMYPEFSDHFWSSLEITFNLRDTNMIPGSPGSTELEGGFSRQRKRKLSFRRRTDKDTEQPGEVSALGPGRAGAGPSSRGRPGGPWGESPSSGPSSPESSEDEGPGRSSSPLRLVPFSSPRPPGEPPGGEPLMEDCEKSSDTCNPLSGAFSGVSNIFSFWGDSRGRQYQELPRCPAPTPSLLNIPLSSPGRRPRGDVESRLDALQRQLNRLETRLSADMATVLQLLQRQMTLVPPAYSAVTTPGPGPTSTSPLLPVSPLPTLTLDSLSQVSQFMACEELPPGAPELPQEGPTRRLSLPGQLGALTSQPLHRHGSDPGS

SMILES	hERG current change (%, negative = inhibition) at 10uM
CC(C)Cn1c(=O)c2c(nc3n2CC(C)CN3Cc2ccccc2)n(C)c1=O (stereo not shown)	-83.3%
COc1ccc(-c2c(-c3cc(OC)cc(OC)c3)n(C)c3ccc(-c4ccc(S(N)(=O)=O)cc4)cc23)cc1	14.8%
Cc1ccc(Nc2nc3ccccc3[nH]2)nc1	-9.82%
COc1ccccc1Nc1nc(N)nc(CSC(=S)N2CCCCC2)n1	0.598%
CCOC(=O)N1CCC(NS(=O)(=O)c2ccc3c(c2)CCN3C(C)=O)CC1	-0.517%
COc1ccc(NS(=O)(=O)c2ccc3c(c2)NC(=O)CCS3)cc1Cl	3.76%
CN(C)C(Cc1ccc(Cl)cc1)C(=O)c1ccccc1 (stereo not shown)	-4.01%
COc1ccc(C(=O)NCCNc2ccccc2[N+](=O)[O-])cc1	-8.54%
CCCCC(=Nc1ccccc1OC)C1=C(O)CC(c2ccccc2)CC1=O (stereo not shown)	3.11%
CCCc1cc(C(=O)Nc2ccc(C(=O)c3ccc(C)cc3)cc2)n(C)n1	2.4%
Cn1c(CCN2CCCCC2)nc2cc(NC(=O)COc3ccc([N+](=O)[O-])cc3)ccc21	-63.1%
Cc1cc(SCC(=O)NC2(C#N)CCCCC2)nc2c(C)cccc12	9.57%
Cc1c(NC(=O)CSc2nnnn2C)c(=O)n(-c2ccccc2)n1C	0.477%
C=CCNC(=O)CN1CCC(O)(c2ccccc2)CC1	4.87%
CCCn1c(SCC(=O)N2CCN(C(C)=O)CC2)nc2sc3c(c2c1=O)CCC3	-40%
Cc1cccc(Sc2c([N+](=O)[O-])ncn2C)c1	13.4%
Cc1nnc(NC(=O)c2ccncc2)s1	12.7%
COC(=O)c1ccc2c(=O)sc(N3CCC(C(N)=O)CC3)nc2c1	0.731%
O=C(NC1CCCCC1)c1cc(S(=O)(=O)N2CCCCC2)ccc1N1CCOCC1	-18.2%
O=C(COC(=O)/C=C/c1cccc(F)c1)Nc1ncccn1	-9.87%
O=C1CCCN1c1ccc(S(=O)(=O)Nc2ccc3c(c2)OCCO3)cc1	9.93%
COc1ccc(CN2CC(=O)N3[C@H]4c5ccccc5OC[C@@H]4[C@H](c4ccccc4)[C@]3(C)C2=O)cc1	15.3%

SMILES	hERG current change (%, negative = inhibition) at 10uM
O=C(Cc1csc(N2CCOCC2)n1)N/N=C/c1ccccc1C(=O)O	21.4%
CCN(CC)C(=O)COc1ccc(/C(C)=N/Nc2ncc(Cl)cc2Cl)cc1	-19.6%
CCNC(=O)C12CCC(C)(C(=O)C1Br)C2(C)C (stereo not shown)	14.2%
Cc1ccc(NC(=O)c2nc(C)n(-c3ccc([N+](=O)[O-])cc3)n2)cc1	-32.2%
OCC(O)C1OC(Nc2ccc(Cl)cc2)C(O)C1O (stereo not shown)	0.0372%
COc1ccc(NC(=O)c2cc([N+](=O)[O-])ccc2NC(=O)CNC2CCCCC2C)c(OC)c1 (stereo not shown)	-76.3%
COCCN1C(=O)c2oc3cc(C)c(C)cc3c(=O)c2C1c1cccc(O)c1 (stereo not shown)	-15%
C(=C1/CCCC2=C1Nc1ncnn1C2c1ccccc1)/c1ccccc1 (stereo not shown)	-12.1%
COc1ccc(-n2c(O)c(/C=C3\C=Nc4ccc(Br)cc43)c(=O)[nH]c2=O)c(OC)c1	10.8%
Cc1ccc2c(c1)C(c1ccccc1)C(=O)O2 (stereo not shown)	3.23%
Cc1cccc(N2C(=O)CS/C2=N\NC(=O)c2ccc(Cl)cc2)c1C	1.76%
COc1ccc(C(=O)N2CCCC(c3ccccc3)=N2)cc1	-0.229%
C/C=C/c1ccc2c(c1)OCO2	20.8%
CC12CCC(=O)N1C(C(=O)Nc1nc3c(F)cc(F)cc3s1)CS2 (stereo not shown)	-6.06%
COC(=O)c1ccc(NC(=O)C(=O)c2cccn2C)cc1	10.6%
CS(=O)(=O)Nc1ccccc1C(=O)OCC(=O)NC1CC1	8.92%
CCOC(=O)N(CC)c1ccc(C(O)(C(=O)OC)C(F)(F)F)cc1 (stereo not shown)	-1.03%
CCOc1ccccc1OCCOc1ccccc1CC	10.1%
Cc1c(C(=O)N(C)CCn2ccnc2C)oc2c(F)cccc12	-35%
Cc1ccc(C)c(Cn2c(=O)n(-c3ccc(CC(=O)NCc4ccco4)cc3)c(=O)c3sccc32)c1	-12.9%
O=C(c1ccncc1)c1ccc(NC(=O)c2cccs2)cc1	-17%
